# Laboratory results as given in PubChem BioAssay AID1963852 (Molecular Pharmacology Branch, DTP, NCI, 2024).
# Not every entry of the source has a single result; some have several. The other results are left out here. An entry can have further records. Values given together are repeats in other runs, samples, wells, individuals or studies. Counts like (3×) give the number of equal values in this list. A date in brackets names the month of the test.
# Tested on: 282377-053-R-J1-PDC complex spheroid viability
# Experiment: Anticancer human tumor 282377-053-R-J1-PDC patient-derived colon adenocarcinoma cell line growth inhibition [POLQ]
# Conditions: for IC50: compound alone; for viability, T/C: stronger effect = lower value
# Experimental: Multicellular complex tumor spheroid response to Polymerase (POL) inhibitors (novobiocin, ART-558, RP6685) in combination with a variety of drugs and investigational agents in selected tumor cell lines
# The POL inhibitors (novobiocin, ART-558, and RP6685) were evaluated both individually and in combination with standard of care and investigational anticancer small molecules within a complex spheroid model of solid tumors. . Complex spheroids include a stromal component modeled by human endothelial cells (HUVEC) and fibroblasts modeled by human mesenchymal stem cells (MSCs). The concentration ranges selected for each drug and investigational agent were based upon clinically achievable concentrations if the clinical Cmax of the agent was known.
# Compounds. The drugs and investigational agents: novobiocin (NSC847541), ART-558 (NSC835418), RP-6685 (NSC848927), peposertib (NSC802822), ceralasertib (NSC780249), elimusertib (NSC800525), camonsertib (NSC841442), AZD-1390 (NSC803789), olaparib (NSC753686), talazoparib (NSC767125), rucaparib (NSC756644), sotorasib (NSC818433), MRTX-1133 (NSC836407), SN-38 (NSC673596), topotecan (NSC609699), epotoside (NSC141540), doxorubicin (NSC123127), gemcitabine (NSC613327), 5-fluorouracil (NSC19893), paclitaxel (NSC125973), vemurafenib (NSC761431), MSA-2 (NSC828583), SN-011 (NSC837082), adavosertib (NSC754352), prexasertib (NSC758257), carboplatin (NSC241240) and oxaliplatin (NSC266046), were obtained from the National Cancer Institute (NCI) Developmental Therapeutics Program Chemical Repository (21). The FDA-approved anticancer drug set is available from the Developmental Therapeutics Program at https://dtp.cancer.gov/organization/dscb/obtaining/. […] The stock solutions were prepared in dimethyl sulfoxide (DMSO, Sigma-Aldrich, St. Louis, MO, cat. D2650), except for the platinum compounds which were prepared in saline (Quality Biological, Gaithersburg, MD, cat. 114-055-101), at 800-fold the tested concentration and stored at -70 degrees C prior to their use. All drugs and investigational agents were tested over a range starting from a high concentration at or near the clinical Cmax and decreasing in half-log increments. If the clinical Cmax for an agent had not been determined, the highest concentration tested was 10 microM, except for SN-38, which was tested at a high concentration of 1 microM.
# Cell Culture. All cells were maintained in an incubator at 37 degrees C and 5% CO2 with 95% humidity. The PDC lines were cultured according to standard operating procedures established by the NCI PDMR (https://pdmr.cancer.gov). Table 3 of the manuscript, lists the cell lines along with the number of the three cell types plated to form the mct-spheroids and media for tumor cell growth. After thawing, all PDC lines, except 997537-175-T-J1-PDC and 415267-285-R-J2-PDC, were cultured in Matrigel-coated flasks prepared with a working solution of 1X Ham's F-12 nutrient mix, without supplementation (Thermo Fisher Scientific, cat. 11765054), 100 U/mL penicillin-streptomycin (Thermo Fisher Scientific, cat. 15140122), and 2.5% Matrigel (Corning Inc., Corning, NY, cat. 354248) for the first three passages. The two PDC lines 997537-175-T-J1-PDC and 415267-285-R-J2-PDC were cultured on uncoated flasks. The 857933-349-R-J2-PDC line was cultured in 6C/Colon 1B media containing advanced DMEM/F-12 (Thermo Fisher Scientific, cat. 12634028), 10 mM HEPES (Thermo Fisher Scientific, cat. 15630080), 1X GlutaMAX supplement (Thermo Fisher Scientific, cat. 35050061), 0.1 mg/mL primocin (InvivoGen, San Diego, CA, cat. ant-pm-2), 10% defined fetal bovine serum, heat inactivated (HyClone Laboratories Inc., Logan, UT, cat. SH30070.03HI), 50% L-WRN conditioned media (ATCC, cat. CRL-3276), 1.25 mM N-Acetyl-L-cysteine (Sigma-Aldrich, cat. A9165), 10 mM nicotinamide (Sigma-Aldrich, cat. N0636), 1X B-27 supplement (Thermo Fisher Scientific, cat. 17504044), 1X N-2 supplement (Thermo Fisher Scientific, cat. […]
# 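Also: spheroids exposed to compounds for seven days.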
# 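For viability, T/C in this document: 100% = DMSO vehicle control viability.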
SMILES,IC50,"viability, T/C (compound alone 0.1 µM)","viability, T/C (compound alone 0.316 µM)",other results
CCc1c2c(nc3ccc(O)cc13)-c1cc3c(c(=O)n1C2)COC(=O)[C@]3(O)CC,"119 nM, 59.6 nM [2023-10] and > 1 µM [2023-11]",–,–,–
Nc1ccc(C#CCN(C(=O)Cc2ncc(C(F)(F)F)cc2C(F)(F)F)c2ccc(F)cc2)nn1,–,"117, 104, 102, 101, 85.7, 85.5, 97.5, 94.1, 97.1 (2×), 95.5, 83.9, 83.7%","97.5, 106 (2×), 97.7, 98.6, 86.7, 98.3, 105, 110, 107 (2×), 91.2, 79.9%",–
Cc1cccc(N(C)C(=O)C2C(O)CCN2c2nc(C)cc(C(F)(F)F)c2C#N)c1 (stereo unspecified),–,–,"95.5, 113 (2×), 111, 97.2, 85.4, 95.4, 101% [2023-10] and 99.7, 108 (2×), 98.4, 93% [2023-11]","viability, T/C (compound alone 0.0316 µM): 80.6, 117, 76.2, 79.7, 111, 84.2, 86.6, 91.3% [2023-10] and 96.4, 103, 104, 92.2, 98.8% [2023-11]; viability, T/C (compound alone 1 µM): 90.7, 121, 108 (2×), 110, 96, 96.9, 97.1% [2023-10] and 114, 101, 95.6, 103, 102% [2023-11]; viability, T/C (compound alone 3.16 µM): 93.1, 118, 85.6, 106, 83.6, 99.2, 93.4, 128% [2023-10] and 97.6, 96.2, 99.9, 101, 109% [2023-11]; viability, T/C (compound alone 10 µM): 112, 93.9, 94.7, 92.5, 85.9, 98.9, 111, 95.6% [2023-10] and 103, 102, 97.8, 94.1, 107% [2023-11]"
CC(=O)O[C@H]1C(=O)[C@@]2(C)[C@H]([C@H](OC(=O)c3ccccc3)[C@]3(O)C[C@H](OC(=O)[C@H](O)[C@@H](NC(=O)c4ccccc4)c4ccccc4)C(C)=C1C3(C)C)[C@]1(OC(C)=O)CO[C@@H]1C[C@@H]2O,"< 9.49 nM [2023-10] and 25.4 nM, > 3 µM [2023-11]",–,–,–
Nc1ccn(C2OC(CO)C(O)C2(F)F)c(=O)n1 (stereo unspecified),"121 nM, 83.8 nM [2023-10] and > 10 µM [2023-11]",–,–,–
COC1C(OC(N)=O)C(O)C(Oc2ccc3c(O)c(NC(=O)c4ccc(O)c(CC=C(C)C)c4)c(=O)oc3c2C)OC1(C)C (stereo unspecified),–,"92.8, 108 (2×), 96.1, 120, 104, 85.6, 123, 100, 102 (3×), 105%",–,–
